We go through 63 sequences from article PMC12820563.

The list shows a part of the results. The list includes weakly bound sequences.

The assay addresses T1, MBP-FoxP3dN (UniProt Q99JB6).
T1 sequence: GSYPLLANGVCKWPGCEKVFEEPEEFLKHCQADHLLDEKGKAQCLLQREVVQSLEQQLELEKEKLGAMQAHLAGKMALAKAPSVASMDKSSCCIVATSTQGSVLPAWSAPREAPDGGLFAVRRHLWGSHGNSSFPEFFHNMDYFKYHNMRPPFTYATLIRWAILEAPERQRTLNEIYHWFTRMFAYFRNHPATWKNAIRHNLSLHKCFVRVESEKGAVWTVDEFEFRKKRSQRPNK
The assay is described as follows: PD-seq (MBP pull-down with sequencing). To be noted: 20 mM Tris-HCl pH 7.5, 100 mM NaCl, 1.5 mM MgCl2, 0.4 uM protein, 0.1 uM dsDNA library, 30 min, room temperature, amylose pull-down; high values mean tight binding; double strand, one strand shown.
For the sequence “GATGATTGTTCTCCCAGCTGATGAATTGTATAGGTCGAGTAAACAAATTTTCCTAATCTTTCTGTTCAAGCGCCATCTAC”, the binding signal (RPM ratio (pull-down/input)) turned out to be 1.08.
Next, “GATGATTGTTCTCCCAGCTGATGAATTTATGACGTCGAGTAAACAAATTTTCCTAATCTTTCTGTTCAAGCGCCATCTAC”: 0.647; “GATGATTGTTCTCCCAGCTGATGAATTAGCTGTATCGAGTAAACAAATTTTCCTAATCTTTCTGTTCAAGCGCCATCTAC”: 1.24; “GATGATTGTTCTCCCAGCTGATGAATTATTATAGTCGAGTAAACAAATTTTCCTAATCTTTCTGTTCAAGCGCCATCTAC”: 0.458.
Turning to “GATGATTGTTCTCCCAGCTGATGAATTTCTCGAATCGAGTAAACAAATTTTCCTAATCTTTCTGTTCAAGCGCCATCTAC”, the binding signal (RPM ratio (pull-down/input)) is 0.211.
For “GATGATTGTTCTCCCAGCTGATGAATTAGGCGTCTCGAGTAAACAAATTTTCCTAATCTTTCTGTTCAAGCGCCATCTAC”, the binding signal (RPM ratio (pull-down/input)) came out at 3.39.
For “GATGATTGTTCTCCCAGCTGATGAATTTTGGTGCTCGAGTAAACAAATTTTCCTAATCTTTCTGTTCAAGCGCCATCTAC”, the binding signal (RPM ratio (pull-down/input)) is 0.668.
For “GATGATTGTTCTCCCAGCTGATGAATTGCGGGTGTCGAGTAAACAAATTTTCCTAATCTTTCTGTTCAAGCGCCATCTAC”, the binding signal (RPM ratio (pull-down/input)) was 1.31.
As for “GATGATTGTTCTCCCAGCTGATGAATTTCATTTCTCGAGTAAACAAATTTTCCTAATCTTTCTGTTCAAGCGCCATCTAC”, the figure is 0.8; as for “GATGATTGTTCTCCCAGCTGATGAATTCAAGCTTTCGAGTAAACAAATTTTCCTAATCTTTCTGTTCAAGCGCCATCTAC”, 0.728; as for “GATGATTGTTCTCCCAGCTGATGAATTCATAGGTTCGAGTAAACAAATTTTCCTAATCTTTCTGTTCAAGCGCCATCTAC”, 0.419.
With “GATGATTGTTCTCCCAGCTGATGAATTGTACCCTTCGAGTAAACAAATTTTCCTAATCTTTCTGTTCAAGCGCCATCTAC”, the binding signal (RPM ratio (pull-down/input)) was determined as 0.44.
Consider “GATGATTGTTCTCCCAGCTGATGAATTCGTGCGCTCGAGTAAACAAATTTTCCTAATCTTTCTGTTCAAGCGCCATCTAC”, for which the binding signal (RPM ratio (pull-down/input)) was 0.634.
As for “GATGATTGTTCTCCCAGCTGATGAATTACTTGATTCGAGTAAACAAATTTTCCTAATCTTTCTGTTCAAGCGCCATCTAC”, the figure is 0.378; as for “GATGATTGTTCTCCCAGCTGATGAATTGCGCGACTCGAGTAAACAAATTTTCCTAATCTTTCTGTTCAAGCGCCATCTAC”, 2.46.
Next, “GATGATTGTTCTCCCAGCTGATGAATTTTGTGGTTCGAGTAAACAAATTTTCCTAATCTTTCTGTTCAAGCGCCATCTAC”: 4.43; “GATGATTGTTCTCCCAGCTGATGAATTCGAATCCTCGAGTAAACAAATTTTCCTAATCTTTCTGTTCAAGCGCCATCTAC”: 0.471; “GATGATTGTTCTCCCAGCTGATGAATTCGACGGATCGAGTAAACAAATTTTCCTAATCTTTCTGTTCAAGCGCCATCTAC”: 0.269.
Consider “GATGATTGTTCTCCCAGCTGATGAATTCGGTGTCTCGAGTAAACAAATTTTCCTAATCTTTCTGTTCAAGCGCCATCTAC”, for which the binding signal (RPM ratio (pull-down/input)) was 1.86.
As for “GATGATTGTTCTCCCAGCTGATGAATTTCAGTTGTCGAGTAAACAAATTTTCCTAATCTTTCTGTTCAAGCGCCATCTAC”, the binding signal (RPM ratio (pull-down/input)) was 1.19.
In the case of “GATGATTGTTCTCCCAGCTGATGAATTGGGAAATTCGAGTAAACAAATTTTCCTAATCTTTCTGTTCAAGCGCCATCTAC”, the binding signal (RPM ratio (pull-down/input)) is 0.588.
Next, “GATGATTGTTCTCCCAGCTGATGAATTATTTGGCTCGAGTAAACAAATTTTCCTAATCTTTCTGTTCAAGCGCCATCTAC”: 0.865.
As for “GATGATTGTTCTCCCAGCTGATGAATTGTAGGACTCGAGTAAACAAATTTTCCTAATCTTTCTGTTCAAGCGCCATCTAC”, the figure is 0.369.
Consider “GATGATTGTTCTCCCAGCTGATGAATTTCCCCCATCGAGTAAACAAATTTTCCTAATCTTTCTGTTCAAGCGCCATCTAC”, for which the binding signal (RPM ratio (pull-down/input)) was determined as 0.254.
Turning to “GATGATTGTTCTCCCAGCTGATGAATTAAGAGCGTCGAGTAAACAAATTTTCCTAATCTTTCTGTTCAAGCGCCATCTAC”, the binding signal (RPM ratio (pull-down/input)) amounted to 0.433.
As for “GATGATTGTTCTCCCAGCTGATGAATTCATACGTTCGAGTAAACAAATTTTCCTAATCTTTCTGTTCAAGCGCCATCTAC”, the figure is 0.51; as for “GATGATTGTTCTCCCAGCTGATGAATTCCAGCAATCGAGTAAACAAATTTTCCTAATCTTTCTGTTCAAGCGCCATCTAC”, 1.63.
Consider “GATGATTGTTCTCCCAGCTGATGAATTACACCACTCGAGTAAACAAATTTTCCTAATCTTTCTGTTCAAGCGCCATCTAC”, for which the binding signal (RPM ratio (pull-down/input)) worked out at 0.69.
As to “GATGATTGTTCTCCCAGCTGATGAATTCGCGGTCTCGAGTAAACAAATTTTCCTAATCTTTCTGTTCAAGCGCCATCTAC”, the binding signal (RPM ratio (pull-down/input)) is 0.492.
“GATGATTGTTCTCCCAGCTGATGAATTGGCATAATCGAGTAAACAAATTTTCCTAATCTTTCTGTTCAAGCGCCATCTAC”: the binding signal (RPM ratio (pull-down/input)) came out at 0.597.
As for “GATGATTGTTCTCCCAGCTGATGAATTTCCTCCCTCGAGTAAACAAATTTTCCTAATCTTTCTGTTCAAGCGCCATCTAC”, the figure is 0.223; as for “GATGATTGTTCTCCCAGCTGATGAATTGAAAGGATCGAGTAAACAAATTTTCCTAATCTTTCTGTTCAAGCGCCATCTAC”, 0.183.
As for “GATGATTGTTCTCCCAGCTGATGAATTCTAGGAATCGAGTAAACAAATTTTCCTAATCTTTCTGTTCAAGCGCCATCTAC”, the binding signal (RPM ratio (pull-down/input)) came out at 0.18.
On to “GATGATTGTTCTCCCAGCTGATGAATTTTTACGCTCGAGTAAACAAATTTTCCTAATCTTTCTGTTCAAGCGCCATCTAC”, for which the binding signal (RPM ratio (pull-down/input)) was 0.259.
Take “GATGATTGTTCTCCCAGCTGATGAATTTTGGGCATCGAGTAAACAAATTTTCCTAATCTTTCTGTTCAAGCGCCATCTAC”: the binding signal (RPM ratio (pull-down/input)) came to 0.782.
As for “GATGATTGTTCTCCCAGCTGATGAATTCCCGCATTCGAGTAAACAAATTTTCCTAATCTTTCTGTTCAAGCGCCATCTAC”, the figure is 5.9.
Regarding “GATGATTGTTCTCCCAGCTGATGAATTAACATTGTCGAGTAAACAAATTTTCCTAATCTTTCTGTTCAAGCGCCATCTAC”, the binding signal (RPM ratio (pull-down/input)) was 0.588.
As for “GATGATTGTTCTCCCAGCTGATGAATTGCAACATTCGAGTAAACAAATTTTCCTAATCTTTCTGTTCAAGCGCCATCTAC”, the binding signal (RPM ratio (pull-down/input)) was 4.94.
For “GATGATTGTTCTCCCAGCTGATGAATTAATGCCCTCGAGTAAACAAATTTTCCTAATCTTTCTGTTCAAGCGCCATCTAC”, the binding signal (RPM ratio (pull-down/input)) was 1.29.
As for “GATGATTGTTCTCCCAGCTGATGAATTTGGCCTTTCGAGTAAACAAATTTTCCTAATCTTTCTGTTCAAGCGCCATCTAC”, the figure is 4.54; as for “GATGATTGTTCTCCCAGCTGATGAATTCATAGAGTCGAGTAAACAAATTTTCCTAATCTTTCTGTTCAAGCGCCATCTAC”, 0.307; as for “GATGATTGTTCTCCCAGCTGATGAATTATCCAAATCGAGTAAACAAATTTTCCTAATCTTTCTGTTCAAGCGCCATCTAC”, 0.222.
As for “GATGATTGTTCTCCCAGCTGATGAATTGGGGTTCTCGAGTAAACAAATTTTCCTAATCTTTCTGTTCAAGCGCCATCTAC”, the figure is 0.782; as for “GATGATTGTTCTCCCAGCTGATGAATTACTGACCTCGAGTAAACAAATTTTCCTAATCTTTCTGTTCAAGCGCCATCTAC”, 0.285.
In the case of “GATGATTGTTCTCCCAGCTGATGAATTGCTCGCTTCGAGTAAACAAATTTTCCTAATCTTTCTGTTCAAGCGCCATCTAC”, the binding signal (RPM ratio (pull-down/input)) is 0.6.
“GATGATTGTTCTCCCAGCTGATGAATTGCAGAAGTCGAGTAAACAAATTTTCCTAATCTTTCTGTTCAAGCGCCATCTAC”: the binding signal (RPM ratio (pull-down/input)) was 0.394.
Regarding “GATGATTGTTCTCCCAGCTGATGAATTTACCACGTCGAGTAAACAAATTTTCCTAATCTTTCTGTTCAAGCGCCATCTAC”, the binding signal (RPM ratio (pull-down/input)) amounted to 0.499.
As for “GATGATTGTTCTCCCAGCTGATGAATTAATGCTTTCGAGTAAACAAATTTTCCTAATCTTTCTGTTCAAGCGCCATCTAC”, the binding signal (RPM ratio (pull-down/input)) turned out to be 1.78.
In the case of “GATGATTGTTCTCCCAGCTGATGAATTAGAATCCTCGAGTAAACAAATTTTCCTAATCTTTCTGTTCAAGCGCCATCTAC”, the binding signal (RPM ratio (pull-down/input)) was 0.465.
As to “GATGATTGTTCTCCCAGCTGATGAATTTTGCGCTTCGAGTAAACAAATTTTCCTAATCTTTCTGTTCAAGCGCCATCTAC”, the binding signal (RPM ratio (pull-down/input)) was 1.78.
As for “GATGATTGTTCTCCCAGCTGATGAATTTATCGGCTCGAGTAAACAAATTTTCCTAATCTTTCTGTTCAAGCGCCATCTAC”, the figure is 0.629; as for “GATGATTGTTCTCCCAGCTGATGAATTGCCATGCTCGAGTAAACAAATTTTCCTAATCTTTCTGTTCAAGCGCCATCTAC”, 1; as for “GATGATTGTTCTCCCAGCTGATGAATTGACGAACTCGAGTAAACAAATTTTCCTAATCTTTCTGTTCAAGCGCCATCTAC”, 0.256.
Consider “GATGATTGTTCTCCCAGCTGATGAATTTATCACATCGAGTAAACAAATTTTCCTAATCTTTCTGTTCAAGCGCCATCTAC”, for which the binding signal (RPM ratio (pull-down/input)) came out at 1.28.
Take “GATGATTGTTCTCCCAGCTGATGAATTGAAACCTTCGAGTAAACAAATTTTCCTAATCTTTCTGTTCAAGCGCCATCTAC”: the binding signal (RPM ratio (pull-down/input)) amounted to 0.235.
Next, “GATGATTGTTCTCCCAGCTGATGAATTGAGTATGTCGAGTAAACAAATTTTCCTAATCTTTCTGTTCAAGCGCCATCTAC”: 1.87; “GATGATTGTTCTCCCAGCTGATGAATTTTTGACTTCGAGTAAACAAATTTTCCTAATCTTTCTGTTCAAGCGCCATCTAC”: 0.447; “GATGATTGTTCTCCCAGCTGATGAATTTCGGTTTTCGAGTAAACAAATTTTCCTAATCTTTCTGTTCAAGCGCCATCTAC”: 0.714.
As to “GATGATTGTTCTCCCAGCTGATGAATTGCGACGTTCGAGTAAACAAATTTTCCTAATCTTTCTGTTCAAGCGCCATCTAC”, the binding signal (RPM ratio (pull-down/input)) stood at 0.926.
On to “GATGATTGTTCTCCCAGCTGATGAATTTCTGACTTCGAGTAAACAAATTTTCCTAATCTTTCTGTTCAAGCGCCATCTAC”, for which the binding signal (RPM ratio (pull-down/input)) was 0.39.
Turning to “GATGATTGTTCTCCCAGCTGATGAATTGGACTGATCGAGTAAACAAATTTTCCTAATCTTTCTGTTCAAGCGCCATCTAC”, the binding signal (RPM ratio (pull-down/input)) is 0.228.
Turning to “GATGATTGTTCTCCCAGCTGATGAATTAACTACGTCGAGTAAACAAATTTTCCTAATCTTTCTGTTCAAGCGCCATCTAC”, the binding signal (RPM ratio (pull-down/input)) was 0.298.
Turning to “GATGATTGTTCTCCCAGCTGATGAATTTAGCAGCTCGAGTAAACAAATTTTCCTAATCTTTCTGTTCAAGCGCCATCTAC”, the binding signal (RPM ratio (pull-down/input)) is 1.72.
